From PubChem BioAssay AID1645887 (National Center for Advancing Translational Sciences (NCATS), 2021)
Several values for one entry are separate records, joined by “and”; a condition that tells them apart may be missing. Equal entries are not always repeated. Hit rate of the full screen: of about 16,000 compounds, about 40 (0.2%) were called active. Inconclusive results (about 1%) are left out. Calls follow the shape of the dose curve; as a rule, active = well fitted activation curve with a large enough effect; inconclusive = small, poorly fitted or top-dose-only effect, or another doubt; inactive = no such curve, though single readings can be large or run the other way. The list shows a part of the results. Non-standard residues stand in square brackets, D forms with d. Residues, ends and D or L forms follow the SMILES beside them. *: point of attachment. Sta = CC(C)C[C@H](N)[C@@H](O)CC(=O)O; Isovaleryl = CC(C)CC(=O)*

Biological target: Rap guanine nucleotide exchange factor 4 (Homo sapiens) (UniProt Q8WZA2)
Chain of UniProt Q8WZA2 (Q8WZA2 whole entry, looked up): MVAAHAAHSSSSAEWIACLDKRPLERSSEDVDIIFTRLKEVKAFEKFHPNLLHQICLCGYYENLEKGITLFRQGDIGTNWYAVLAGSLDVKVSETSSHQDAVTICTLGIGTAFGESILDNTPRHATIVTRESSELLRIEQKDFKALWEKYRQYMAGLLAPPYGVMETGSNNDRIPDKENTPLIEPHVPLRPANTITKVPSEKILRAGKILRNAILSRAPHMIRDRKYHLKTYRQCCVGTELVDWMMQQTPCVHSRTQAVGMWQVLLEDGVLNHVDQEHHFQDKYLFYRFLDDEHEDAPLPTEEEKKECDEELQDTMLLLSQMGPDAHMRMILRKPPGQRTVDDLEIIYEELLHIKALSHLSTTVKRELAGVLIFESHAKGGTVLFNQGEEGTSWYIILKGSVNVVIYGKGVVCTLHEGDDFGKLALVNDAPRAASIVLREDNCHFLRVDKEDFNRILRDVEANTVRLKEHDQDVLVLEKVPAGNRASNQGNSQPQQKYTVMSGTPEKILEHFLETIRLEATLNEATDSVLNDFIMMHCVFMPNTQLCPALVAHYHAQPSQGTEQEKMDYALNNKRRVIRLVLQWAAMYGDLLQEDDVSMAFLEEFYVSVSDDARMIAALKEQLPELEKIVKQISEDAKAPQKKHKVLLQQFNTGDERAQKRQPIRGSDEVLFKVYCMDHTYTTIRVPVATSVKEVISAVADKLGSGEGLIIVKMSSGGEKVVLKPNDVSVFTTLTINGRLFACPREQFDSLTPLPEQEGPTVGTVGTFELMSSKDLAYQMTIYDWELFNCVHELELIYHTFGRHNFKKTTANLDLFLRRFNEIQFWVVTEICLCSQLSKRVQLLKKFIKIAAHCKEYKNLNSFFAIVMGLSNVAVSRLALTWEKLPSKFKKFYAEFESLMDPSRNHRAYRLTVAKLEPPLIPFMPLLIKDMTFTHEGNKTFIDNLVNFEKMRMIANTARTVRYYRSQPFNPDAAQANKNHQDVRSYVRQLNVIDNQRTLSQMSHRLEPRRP
Assay: Validation qHTS for agonist of cAMP-regulated guanine nucleotide exchange factor 4 (EPAC2);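 also: exchange makes BODIPY-GDP fluorescence drop when released from Rap1B; series mostly up to about 150 µM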
Settings: EPAC2 Rap1B BODIPY-GDP exchange, fluorescence; activation: active compounds read high
Outline: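 Signal normalized against 6.5 mM cAMP as agonist control. Mix of EPAC2 (100 nM), RAP1B-BODIPY-GDP (250 nM) and GDP (50 uM) was read kinetically at 480/540 nm, every 5 min over 30 min, after 5 min room-temperature incubation with compound.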
% is scaled to controls: 0 for no effect and ±100 for the full control effect.

activation, inactive:
COC(=O)Nc1nc2ccc(S(=O)c3ccccc3)cc2[nH]1 (centres undefined) -9.71% and 10.6%
COc1ccc(SC[C@H](Cc2ccccc2)N2CC[C@@H](C)CCC2=O)cc1 -9.57%
CC(C)=CCC/C(C)=C/CO -13.8% and 5.47%
COc1cccc(C(=O)NCc2nc(-c3cccc(NC(=O)c4ccoc4C)c3)oc2C)c1 11.2%
O=C(NCc1ccccn1)c1cnn(-c2nccc(-c3ccccc3F)n2)c1C1CC1 -4.72%
Cc1cccc2cc(CNCCCN3CCCC3=O)c(N3CCN4CCCC4C3)nc12 (centres undefined) 0.369%
COc1ccc(-n2c(=O)c(C)nc3cnc(N4CCOCC4)nc32)cc1 -3.21%
CN(C)c1ccc(-c2ccc3ncnc(-n4ccnc4)c3c2)cc1 -4.53%
Cc1cnc(-n2ncc(C(=O)N(C)C3CCOC3)c2C)nc1-c1ccc(F)cc1 (centres undefined) -1.27%
COc1cc(=O)n2c(c1C(=O)N(C)Cc1nccs1)CCN(Cc1cc3ccccc3s1)CC2 -0.561%
O=c1cc(-c2cccc(O)c2)oc2cc(O)ccc12 -4.12%
CCn1ccnc1CC1COc2ccccc2O1 (centres undefined) -11.9% and -23.9%
CC(=O)N1CCN(C(=O)c2sc3ncnc(NCC4CCCO4)c3c2C)CC1 (centres undefined) 7.3%
Cc1c(C(=O)N2CCCCC2c2cccnc2)sc2ncnc(NCc3cccs3)c12 (centres undefined) -4.03%
Nc1nc2c(nc(Br)n2C2CC(O)C(CO)O2)c(=O)[nH]1 (centres undefined) -1.52%
Cc1cnc(C)c(-c2ccc(F)c3c2OC(CNC(=O)Cc2c(F)cccc2F)C3)n1 (centres undefined) -15.7%
CCOC(=O)C12CC1/C(=N/O)c1ccccc1O2 (centres undefined) -42.8%
CCC1CN(CCC(=O)N2CCN(c3ncccn3)CC2)Cc2cc(OC)ccc2O1 (centres undefined) -19.6%
Cc1cc2ccccc2c[n+]1CC(=O)c1ccc(F)cc1 -20.7%
Cc1ccc(SC[C@H](Cc2ccccc2)N2CC[C@@H](C)CCC2=O)cc1 -29.6%
NC(=O)C1CCCN(Cc2ccc3c(c2)CN(Cc2cn[nH]c2-c2ccc(F)cc2)CCO3)C1 (centres undefined) 4.97%
Nc1ccn([C@@H]2O[C@H](CO)[C@H](O)C2(F)F)c(=O)n1 7.07%
COC(=O)C[C@H]1c2cc(F)ccc2S(=O)(=O)N1Cc1ccccc1 -4.73%
C[C@@H]1C[C@H]2[C@@H]3C[C@H](F)C4=CC(=O)C(Cl)=C[C@]4(C)[C@@]3(F)[C@@H](O)C[C@]2(C)[C@@]1(O)C(=O)CO -18%
O=C(c1csnn1)N1CCC2(CC1)CN(Cc1cc(C(F)(F)F)cc(C(F)(F)F)c1)C2 -9.1%
CO[C@H]1C[C@@H]2CC[C@@H](C)[C@@](O)(O2)C(=O)C(=O)N2CCCC[C@H]2C(=O)O[C@H](C(C)C[C@H]2CC[C@@H](O)[C@H](OC)C2)CC(=O)[C@H](C)/C=C(\C)[C@@H](O)[C@@H](OC)C(=O)[C@H](C)C[C@H](C)/C=C/C=C/C=C/1C (some centres undefined) -21%
C=CCN1CCc2c(cc(O)c(O)c2Br)[C@@H](c2ccccc2)C1 -9.01% and -23.9%
Nc1nc(NCCc2ccc(O)cc2)nc2nc(-c3ccco3)nn12 -11.7% and -19.9%
CCCCCCCCCCCC(=O)N(CCO)CCO -40%
CC1(C)C(O)C=C[C@@]2(C)C1CC(=O)O[C@@]1(C)C3=CC(=O)OC(c4ccoc4)[C@]3(C)CCC21 (some centres undefined) -21.2%
COc1cc(OC)c(OC)cc1CN1CCOc2ccc(CN3C[C@@H](C)O[C@@H](C)C3)cc2C1 -10.3%
COC(=O)c1ccc(O)cc1 -14.6%
FC(F)(F)c1ccccc1-c1cncnc1Nc1ccccc1 -9.03%
COc1c(-c2ccc(O)c(O)c2)oc2cc(O)cc(O)c2c1=O 0.58%
COc1ccc(Oc2ncc3nc(-c4ccc(OC)cc4)c(=O)n(CCC#N)c3n2)cc1 -4.27%
CCCCCCCCCNC(=O)[C@H](NC(=O)COc1ccccc1)[C@@H]1NC(C(=O)OC)C(C)(C)S1 (some centres undefined) -13.6%
C[C@@](N)(C(=O)O)c1ccc(P(=O)(O)O)cc1 -13.9%
CCc1nc2cc(C(=O)N[C@H]3CCCCNC3=O)cc(NC(=O)c3ccccc3OC)c2n1C 2.5%
C[C@H](O)C(=O)Nc1c(I)c(C(=O)NC(CO)CO)c(I)c(C(=O)NC(CO)CO)c1I 0.0144%
CCN(CC)CCOc1ccc2nc(N(C)C)sc2c1 4.04%
c1ccc(C(NCc2cccnc2)(c2ccccc2)c2ccccc2)cc1 4.44%
Cc1cnc(CNc2nc(-c3cccnc3)nc3ccccc23)cn1 -9.05%
Cc1cccc(C#Cc2ccccc2)n1 -20.2% and -1.2% and -39.3%
N[C@H](C(=O)O)c1cc(O)cc(O)c1 0.734% [middle of 4 runs]
CNc1cc(-c2c(C)noc2C)ncn1 4.79%
Cc1cnc(SCc2ccccn2)nc1C1CCCN(C(=O)c2noc3c2CCCC3)C1 (centres undefined) -13.5%
Cc1nc2cnc(N3CCNCC3)nc2n(CCc2ccccc2)c1=O -22.7%
CC(C)CC(=O)N[C@H](C(=O)N[C@H](C(=O)N[C@@H](CC(C)C)[C@@H](O)CC(=O)N[C@@H](C)C(=O)N[C@@H](CC(C)C)[C@@H](O)CC(=O)O)C(C)C)C(C)C (Isovaleryl-VV[Sta]A[Sta]-OH) 2.78% and -26.9%
COc1ccccc1CCC(=O)O -3.93%
CCC(C(=O)O)c1ccccc1 (centres undefined) 4.99%
Cc1onc(-c2ccccc2)c1C(=O)NC1C(=O)N2C(C(=O)O)C(C)(C)S[C@@H]12 (some centres undefined) 3.38%
CO[C@H]1[C@H](NC(=O)c2ccsc2)c2ccccc2C12CCN(Cc1cc3ccccc3o1)CC2 12.6%
COc1cccc(Cn2c(=O)c(C)nc3cnc(OC)nc32)c1 1.23%
COCc1c(C(=O)N2CCC(c3ccccc3)CC2)cnn1-c1nccc(-c2cc(C)sc2C)n1 -16.7%
O=c1cc[nH]c(=S)[nH]1 4.41%
CCCCC/C=C\C\C=C/C=C/C=C/[C@@H](SC[C@H](N)C(=O)O)[C@@H](O)CCCC(=O)O 0.139%
c1ccc(CCNc2nc(-c3ccccc3)cs2)cc1 4.83%
N[C@H](Cn1ccc(=O)c(O)c1)C(=O)O 0.148%
O=C(O)C1Cc2c([nH]c3ccccc23)C(c2coc3ccccc3c2=O)N1 (centres undefined) -2.51%
CCC(=O)c1c(O)cc(O)cc1O -17.3%
OCC1O[C@H](O)C(Cl)C(O)C1O (some centres undefined) 4.22%
Cn1cnnc1Sc1ccc(CN2CCOc3ccc(C4=Cc5ccccc5C4)cc3C2)o1 -31.1%
CC(C)(C)[C@]1(O)CCN2C[C@H]3c4ccccc4CCc4cccc(c43)[C@@H]2C1 -6.66% and -25.8% and -38.5%
NC(=O)[C@H]1O[C@@H](O)[C@H](O)[C@@H](O)[C@@H]1O 7.08%
Nc1nc2[nH]c(=O)cnc2c(=O)[nH]1 -33.3%
O=S(=O)(c1ccccc1)N1CCC[C@@]2(CCN(C(c3ccccc3)c3ccccc3)C2)C1 -5.72%
[N-]=[N+]=NCCN1CCN(Cc2ccccc2)CCC1=O -4.87%
O=S1(=O)CCO[C@H]2CCCC[C@@H]2N1Cc1ccccc1F -21.5%
CCN(CC)CCNC(=O)c1cnn(-c2ncc3c(n2)-c2ccc(OC)cc2CC3)c1C 0.725%
C=C(C)C(=O)OC[C@@H]1CCC[N@+]2(C)CCCCC12 (some centres undefined) -24.7%
CCOc1ccccc1O[C@H](c1ccccc1)[C@H]1CNCCO1 -17.1%
NC(=NCc1ccc(Cl)cc1Cl)NC(=O)c1nc(Cl)c(N)nc1N 5.98% and -12.2%
COc1ccccc1-c1nc(NCCN2CCOCC2)c2ccccc2n1 -12.2%
O=C(O)C1CCCN1 (centres undefined) 8.25%
CC1Cc2ccccc2N1NC(=O)c1ccc(Cl)c(S(N)(=O)=O)c1 (centres undefined) -0.735% and 6.37%
Cc1ccc2c(C)nc(N3CCCC(C(=O)NC(C)(C)CO)C3)nc2c1 (centres undefined) 1.38%
CCN1/C(=C/C=C/c2sc3ccccc3[n+]2CC)Sc2ccccc21 -2.36%
COc1ccccc1-c1ccnc(-n2ncc(C(=O)N(C)CCc3ccccn3)c2C)n1 -8.25%
CCOCC(O)COc1ccc(NC(=O)CC[S+](C)C)cc1 (centres undefined) 18.3%
CCCCCCCCCCCCCCCCCC(=O)OCC(C)O (centres undefined) -8.91%
COc1cc(/C=C(\C#N)C(N)=O)cc(CSc2nc3ccccc3s2)c1O -1.99% and 8.92% and 1.02%
CC(=O)c1ccc(OCC(=O)N2CCCCC2)cc1 -10%
FC(F)(F)c1ccccc1-c1cc(NCc2ccccc2)ncn1 -30.8%
C[C@@H]1C[C@@H](CC(=O)NCC2Cc3cccc(-c4ccncc4)c3O2)NC(=S)N1 (some centres undefined) -1.33%
